From PMC12136788 come the findings set out here.

B1: 74721200_74721320_1198_3pUTR_ENSG00000113163_ENST00000380494|human|control|control (ssRNA)
RNA: GGGAGUUCUACAGUCCGACGAUCGUUCAUCCUUAGAGACAGCAUCAGCACAGGCAUCAAAGUACUUCUGUAGCGUGUCAACUUGUCUACAUAAGAUGUCUCUAAAUGUUUCCAUUUCAGCCAACUUCUCACGUAAACUGUGGCCAACAGAGGAUUGAGCAUCA
B2: chr11:102767452:102767453:-_ENSMUSG00000051378_ENSMUST00000021311|mus_hu|FALSE|FALSE (ssRNA)
RNA: GGGAGUUCUACAGUCCGACGAUCCAGGUCCAGCUCCUGGUGCAGGUGGCUACAGGUCCAAGAGGGGUAUCCAGCAGAGGGGCCGGUAGGUUAGGACACCUUGGUGGUCAGGACAUUCUGGCGGUCAGGACACCUUGGUGACGCCAACAGAGGAUUGAGCAUCA
B3: chr1:32384726:32384727:-_ENSG00000184007_ENST00000602725|perfect_dup|FALSE|FALSE (ssRNA)
RNA: GGGAGUUCUACAGUCCGACGAUCAAAAAAAAAUCAAUAAAUCUUGAAAUGUUUCACAGCAGAAAACAUUAAAAAGACCACUAAAAUGCCUAUUAUCAAUCAGUGUUUUCUCUAUUCAACUUGUUUAUUCCUUAUGAAGCUUCUCAACAGAGGAUUGAGCAUCA
B4: chr4:62048941:62048942:+_ENSMUSG00000066150_ENSMUST00000084526|mus_mus|FALSE|FALSE (ssRNA)
RNA: GGGAGUUCUACAGUCCGACGAUCUUGAGACUUUCGAAGCAGACCCUCUCGGGCUAUCUUGAGUCCUUCAUAAAACAUUGCUAGUAAAAACACUGCCACGAAGGCUCCAGCCAUUUCUCCAGGUGUAUUGAUUACCAAACCGGACAACAGAGGAUUGAGCAUCA
B5: chr6:109703465:109703466:-_ENSG00000135535_ENST00000310786|hu_hu|motif|central (ssRNA)
RNA: GGGAGUUCUACAGUCCGACGAUCAGUGGUGACCAGCGGGAGGGACGUCACCGGCGCCGAGGUUACGUUGGAGAUGGGCGCGGAAGUCGUCACGUUCGGGUGCUGGGUCGUGUUCUUGUCCGCGGACAGCACGCAGAGCACGCCCAACAGAGGAUUGAGCAUCA
B6: chr5:68553883:68553884:+_ENSG00000134058_ENST00000256443|hu_hu|FALSE|FALSE (ssRNA)
RNA: GGGAGUUCUACAGUCCGACGAUCUCCUUGAAGAGUCAUCAACAUGUAGGCUUUGAUGUGUGAUGGUGUCAGCACAAGACUAUUAUCCUUUAUUAUAACCUCUAGAUCAGUUUCCAUAAAAUCAAAGACAAGGCUAAUAUUAGACAACAGAGGAUUGAGCAUCA

The list shows a part of the results.

In the assay the target is T1, UNK ZnF1-3 (human, UniProt Q9C0B0 31-174).
T1 sequence: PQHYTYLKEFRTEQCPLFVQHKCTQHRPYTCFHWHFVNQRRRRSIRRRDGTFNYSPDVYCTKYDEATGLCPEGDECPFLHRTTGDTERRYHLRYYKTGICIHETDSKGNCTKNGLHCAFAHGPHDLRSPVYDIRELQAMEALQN
The assay can be described thus: nsRBNS (natural sequence RNA bind-n-seq); RBNS binding buffer (assumed for nsRBNS): 25 mM Tris pH 7.5, 150 mM KCl, 3 mM MgCl2, 0.01% Triton X-100, 500 ug/ml BSA, 20 U/ml SUPERase-In, 4 C; UNK is unkempt and MSI1 is Musashi-1; names of the RNAs are library labels; protein concentration not given here; high values mean tight binding.
Consider B1, for which the binding signal worked out at 0.712 enrichment R. The result for B2 reads 0.867 enrichment R; that for B3, 0.842 enrichment R. For the molecule B4, the binding signal is 0.912 enrichment R.

Consider B5, for which the binding signal was 0.65 enrichment R. The same measure for B6: 1.12 enrichment R.
